PubChem BioAssay AID1671193 (National Center for Advancing Translational Sciences (NCATS), 2021)
In all, about 150,000 compounds went through this assay and about 180 (0.12%) were called active. Inconclusive means that the source gave no clear call. Such entries were picked first, then a sample of the others. Calls come from the whole dose curve; as a rule, active = well fitted cell-killing curve with a large enough effect; inconclusive = small, poorly fitted or top-dose-only effect, or effect the other way; inactive = flat fitted curve, though single readings scatter. A potency beside an inconclusive call is a rough fit, not a confirmed value.

test: GF-AFC viability counterscreen for inhibitors of alpha-synuclein gene (SNCA) expression; conditions: HEK-293-SNCA-luc viability, GF-AFC fluorescence, 24 h; activity change, negative = cytotoxicity: at 57.1 µM (top of the series) unless noted; note: nearly all actives have a fitted effect of over 30% in size;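 for activity change, negative = cytotoxicity: 0% = DMSO-treated cells and -100% = medium-only wells without cells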
How it was run: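 Cytotoxicity counterscreen: after 24 h compound treatment of genome-edited SNCA-luciferase HEK-293 cells, live-cell protease substrate GF-AFC read by fluorescence after 30 min; activity scaled between DMSO (0%) and medium-only (-100%), curves Hill-fitted.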
Potency is the fitted concentration of half-maximal effect; tags give direction and shape of the fitted curve.

Compound | Potency | activity change, negative = cytotoxicity
COc1ccccc1C(=O)N1CCCC2(C1)Nc1cccnc1NC2=NCc1ccccc1 (stereo not drawn) | inconclusive: 39.8 µM [cytotoxic, single point] | 
Cc1cccc(-c2nc3scc(CCNS(=O)(=O)c4c(C)noc4C)n3n2)c1 | inconclusive: 10 µM [cytotoxic, partial curve, poor fit] | 
CCCCNC(=O)C1CCN(C(=O)c2ncn3c2COC(c2ccc(F)cc2)C3)CC1 (stereo not drawn) |  | inactive: -6.05%
CCOc1ccccc1C(=O)Nc1ccc(S(=O)(=O)Nc2onc(C)c2C)cc1 | inconclusive: 20 µM [rising, single point] | 
CC(=O)NC1(C)CCCN(Cc2cccc(-c3ccc4c(ccn4C)c3)c2)C1 (stereo not drawn) | inconclusive: 56.2 µM [cytotoxic, single point] | 
COc1cccc(C(=O)N2CC(Oc3ccc(-c4nc(-c5ccccc5)no4)cc3)C2)c1 |  | inactive: -23.5%
CCCN(CCC)S(=O)(=O)c1ccc2c(c1)N(CC(=O)NCc1ccc(F)cc1Cl)C(=O)CS2 | inconclusive: 11.2 µM [cytotoxic, partial curve] | 
CCC1(N2CCN(C)CC2)CCN(S(=O)(=O)c2ccccc2)C1 (stereo not drawn) |  | inactive: -8.53%
Cc1ccc(C(=O)Nc2ccc(S(=O)(=O)O)c3cc(S(=O)(=O)O)cc(S(=O)(=O)O)c23)cc1NC(=O)c1cccc(NC(=O)Nc2cccc(C(=O)Nc3cc(C(=O)Nc4ccc(S(=O)(=O)O)c5cc(S(=O)(=O)O)cc(S(=O)(=O)O)c45)ccc3C)c2)c1 | inconclusive: 0.961 µM [cytotoxic, full curve, poor fit] | 
CN1CCNc2nc(COc3ccccc3OC(F)(F)F)n(Cc3ccccc3)c2C1=O |  | inactive: -3.81%
COc1ccccc1N1CCN(C(=O)CN2C(=O)COc3ccc(S(=O)(=O)N4CCCCCC4)cc32)CC1 | inconclusive: 11.2 µM [cytotoxic, partial curve, poor fit] | 
CC#CCn1cc2c3c(cccc31)[C@H](CC(C)C)N[C@H](C(=O)N1CCN(CCOC)CC1)C2 |  | inactive: -21.9%
COc1cccc(CNC(=O)c2ccc3c(c2)c(C)c(C)n3Cc2ccccc2)c1OC | inconclusive: 35.5 µM [rising, single point] | 
COc1ccc(-c2cc(C(F)(F)F)nc(S(C)(=O)=O)n2)cc1 | inconclusive: 28.2 µM [cytotoxic, partial curve, poor fit] | 
O=C(Cc1ccccn1)N1CCn2c(nnc2-c2ccccc2)C1 |  | inactive: 13.3% [at 87.6 µM]
COc1ccc(-n2nc(C(=O)N3CCCC(C)C3)c3c4ccccc4n(C)c3c2=O)cc1 (stereo not drawn) | inconclusive: 11.2 µM [cytotoxic, partial curve] | 
O=C(Nc1ccc(F)c(F)c1)c1cc(S(=O)(=O)NC2CCCCCC2)ccc1F | inconclusive: 39.8 µM [cytotoxic, single point] | 
COc1ccc(CNC(=O)CN2C(=O)COc3ccc(S(=O)(=O)Nc4ccccc4)cc32)cc1 | inconclusive: 20 µM [cytotoxic, partial curve, poor fit] | 
COc1cc(OC)c(/C=C2/C(=O)Nc3ccccc32)c(OC)c1 | inconclusive: 20 µM [cytotoxic, partial curve] | 
Fc1cccc(CN2CCO[C@@H](COc3ccccn3)[C@@H]2c2ccccc2)c1 |  | inactive: 14.3%

Compound | Potency | activity change, negative = cytotoxicity
Cc1cc(C)cc(NC(=O)Cn2cc(S(=O)(=O)NC(C)(C)C)c(S(=O)(=O)NC(C)(C)C)c2)c1 | inconclusive: 39.8 µM [cytotoxic, single point] | 
O=C(NC(NC(=S)Nc1ccc(F)c([N+](=O)[O-])c1)C(Cl)(Cl)Cl)C(c1ccccc1)c1ccccc1 (stereo not drawn) | inconclusive: 12.6 µM [cytotoxic, partial curve, poor fit] | 
CCc1noc(-c2nc(-c3ccc(OC)c(OC)c3)no2)n1 |  | inactive: -2.9%
CC[C@H](C)[C@H]1O[C@]2(CC[C@@H]1C)C[C@@H]1C[C@@H](C/C=C(\C)[C@@H](O[C@H]3C[C@H](OC)[C@@H](O[C@H]4C[C@H](OC)[C@@H](O)[C@H](C)O4)[C@H](C)O3)[C@@H](C)/C=C/C=C3\CO[C@@H]4[C@H](O)C(C)=C[C@@H](C(=O)O1)[C@]34O)O2 | inconclusive: 37.7 µM [cytotoxic, single point] | 
Cc1nn2c(c1-c1ccccc1OCc1ccccc1)N(Cc1ccc(C(=O)O)s1)CCC2 | inconclusive: 17.8 µM [cytotoxic, partial curve, poor fit] | 
COC(=O)c1ccc(N2CCN(C(=O)Cn3nnnc3CN(C)C(C)C)CC2)cc1 | inconclusive: 3.16 µM [rising, single point] | 
CCOc1ccc(CCNC(=O)c2cn(-c3cccc(OC)c3)c(=O)c3ccccc23)cc1 | inconclusive: 14.1 µM [cytotoxic, partial curve, poor fit] | 
CC(C)(C)NC(=O)[C@H]1CN(Cc2cccnc2)CCN1C[C@@H](O)C[C@@H](Cc1ccccc1)C(=O)N[C@H]1c2ccccc2C[C@H]1O | inconclusive: 34.1 µM [cytotoxic, single point] | 
CCCN1C(=O)c2[nH]nc(-c3cccc(OC)c3)c2C1c1ccccn1 (stereo not drawn) | inconclusive: 31.6 µM [cytotoxic, single point] | 
COc1cccc(NC(CNS(=O)(=O)c2ccc(Cl)cc2)c2ccccc2)c1 (stereo not drawn) | inconclusive: 35.5 µM [cytotoxic, single point] | 
COc1cccc(NC(=O)c2ccc3c(c2)NC(C)(CNc2ccccc2)CO3)c1 (stereo not drawn) | inconclusive: 44.7 µM [cytotoxic, single point] | 
Cc1ccc(CNC(=O)C2CCc3nc(N4CCN(C(=O)C(C)C)CC4)sc3C2)o1 (stereo not drawn) |  | inactive: -1.42%
CN1CCC(NC(=O)c2ccc3c(c2)n(Cc2ccc(F)cc2)c(=O)c2ccnn23)CC1 | inconclusive: 39.8 µM [cytotoxic, single point] | 
O=C1Nc2ccccc2CC12CCN2Cc1ccc(OC(F)(F)F)cc1 (stereo not drawn) |  | inactive: 1.19%
COc1ccc(CNC(=O)C2CCCN(c3nccc(Nc4ccc(OC)cc4)n3)C2)cc1 (stereo not drawn) | inconclusive: 31.6 µM [cytotoxic, single point] | 
COCCn1c(=O)c(-c2cc(F)cc(F)c2)nc2cnc(Oc3cccc(Cl)c3)nc21 | inconclusive: 14.1 µM [rising, partial curve, poor fit] | 
Cc1ccc(CN(Cc2cccn2-c2nnc(N3CCCC3=O)s2)C(=O)Nc2ccccc2C(F)(F)F)cc1 | inconclusive: 39.8 µM [cytotoxic, single point] | 
COCC(=O)NC[C@@H]1C=C(C)[C@H](Cc2nc3ccccc3[nH]2)C[C@H]1C(C)C | inconclusive: 28.2 µM [cytotoxic, partial curve, poor fit] | 
O=C(Nc1ccc(Br)cc1)c1cccc(C(=O)Nc2ccc(Br)cc2)c1 | inconclusive: 5.01 µM [cytotoxic, partial curve, poor fit] | 
COc1ccc(Nc2c3c(nc4ccc(NC(=O)/C=C/c5cccc(OC)c5OC)cc24)CCCC3)cc1OC | inconclusive: 39.8 µM [cytotoxic, single point] | 

Compound | Potency | activity change, negative = cytotoxicity
CCOc1ccc(C(=O)N2CCCN(c3cc(-c4ccc(F)cc4)[nH]n3)CC2)cc1 |  | inactive: -17.6%
CCc1cc2c(-c3ccccc3)cc(=O)oc2c2c1OCN(Cc1ccc(F)cc1)C2 | inconclusive: 28.2 µM [rising, partial curve, poor fit] | 
COc1cccc(CCNC(=O)c2c(C)noc2-c2ccccc2OC)c1 |  | inactive: -1.82%
COc1cccc(Nc2ncc3nc(-c4ccccc4)c(=O)n(Cc4cccs4)c3n2)c1 | inconclusive: 1.41 µM [rising, full curve, poor fit] | 
COc1ccc(C(=O)NCCn2cc(SCc3cc(C)ccc3C)c3ccccc32)cc1 | inconclusive: 22.4 µM [cytotoxic, single point] | 
CCOCCCN1C(=O)c2[nH]nc(-c3ccccc3O)c2C1c1ccc(CC)cc1 (stereo not drawn) | inconclusive: 25.1 µM [cytotoxic, partial curve, poor fit] | 
O=C(CCc1ccccc1)N1CCCN(c2cc(-c3ccc(Cl)cc3)[nH]n2)CC1 |  | inactive: -6.5%
O=C(Nc1ccc2nc(SCC(=O)N3CCCC3)sc2c1)c1cccc(Br)c1 | inconclusive: 39.8 µM [cytotoxic, single point] | 
C#CCN(Cc1cc2c(=O)n(C)c(CN3CCN(C)CC3)nc2cc1Cl)c1ccc(C(=O)NCc2cccnc2)cc1 | inconclusive: 18.9 µM [cytotoxic, partial curve, poor fit] | 
Oc1ccc([C@@H]2Oc3ccc(O)cc3[C@@H]3CCC[C@@H]32)cc1 | inconclusive: 2.99 µM [rising, single point] | 
CCc1nn(-c2ccc(OC)cc2)c(Oc2ccccc2F)c1CCC(=O)NC(C)C |  | inactive: -17.7%
CN(C)S(=O)(=O)N1CCCN(Cc2ccncc2)C(c2ccccc2)CC(=O)NCC1 (stereo not drawn) | inconclusive: 5.01 µM [cytotoxic, single point] | 
O=C(NCC(F)(F)F)c1nc2sccn2c1-c1ccc(C(F)(F)F)cc1 |  | inactive: 16.7%
O=C(NCCc1ccc(Cl)cc1)c1ccc(CS(=O)Cc2ccccc2Cl)o1 (stereo not drawn) | inconclusive: 28.2 µM [cytotoxic, partial curve, poor fit] | 
N#Cc1ccc(CN2CCn3c(nnc3-c3ccccc3)C2)cc1 |  | inactive: 5.22% [at 87.6 µM]
O=C(NC[C@H]1Cn2c(-c3ccc4c(c3)OCO4)cnc2CO1)c1ccc2c(c1)OCO2 |  | inactive: -26.8% [at 87.6 µM]
COCCCNC(=O)c1cc(C2CC2)nc2onc(C3CCCNC3)c12 (stereo not drawn) |  | inactive: 7.42%
CC1=C[C@@H](CNS(C)(=O)=O)[C@H](C(C)C)C[C@H]1Cc1nc2ccccc2n1C | inconclusive: 31.6 µM [cytotoxic, single point] | 
